Hit rate of the full screen: of about 310,000 compounds, about 18,000 (5.8%) were called active. Inconclusive results, whose numbers are uncertain, are shown with a selection of clear calls. Calls follow the shape of the dose curve; as a rule, active = well fitted inhibition curve with a large enough effect; inconclusive = small, poorly fitted or top-dose-only effect, or another doubt; inactive = no such curve, though single readings can be large or run the other way. No potency is given beside an inconclusive call; the fits are too rough.
assay: Primary qHTS for delayed death inhibitors of the malarial parasite plastid, 48 hour incubation; details: P. falciparum luciferase growth in erythrocytes; series mostly up to 28.7 µM; activity change, negative = inhibition: at the top concentration
Method in brief: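 Read-out is firefly luciferase luminescence from an integrated reporter in P. falciparum, so falling signal marks reduced parasite growth. Infected erythrocytes were at 2% hematocrit and 0.1% parasitemia (final) in Albumax-supplemented RPMI 1640.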
% is scaled to controls: 0 for no effect and ±100 for the full control effect; potency is read from the fitted curve at half-maximal effect; tags tell the direction and shape of the fitted curve.

SMILES | Potency | activity change, negative = inhibition
COc1ccc(CCNc2nc(-c3sc(N)nc3C)cs2)cc1OC | inconclusive [inhibitor, single point] | –
O=C(C1=C[C@@H](c2coc3ccccc3c2=O)C[C@@H](OCCCCO)O1)N1CCOCC1 | inconclusive [inhibitor, partial curve, poor fit] | –
COCCN(C(=O)COC(=O)c1c(NC(C)=O)sc(C)c1C)c1c(N)n(Cc2ccccc2)c(=O)[nH]c1=O | inconclusive [inhibitor, partial curve] | –
CC(=O)c1c(C)nc(C)nc1NC(=O)C(C)C | inconclusive [inhibitor, partial curve, poor fit] | –
COC(=O)CCC(=O)OC1(C)C(=O)C2=CN(CC3CC3)C(c3ccc(OC)cc3)=CC2=C(Br)C1=O (configuration not stated) | active: 13.1 µM | –
COc1cc(C2C(C(=O)OCCC#N)=C(C)NC3=C2S(=O)(=O)c2ccccc23)cc(OC)c1OC (configuration not stated) | inconclusive [inhibitor, single point] | –
O=c1cc(CN2CCN(c3ccccc3)CC2)c2c(ccc3ccccc32)o1 | active: 13.1 µM | –
C[C@]12CC[C@H](O)C[C@H]1CCC1C2CC[C@]2(C)[C@@H](c3ccc(=O)oc3)C[C@H]3O[C@]132 (some centres not stated) | inconclusive [inhibitor, single point] | –
COCCCNC(=S)N1CCN(c2nc(C)nc3sc4c(c23)CCCC4)CC1 | inconclusive [inhibitor, single point] | –
Cc1cc(C)c2c(CN3CCN(Cc4ccccc4)CC3)cc(=O)oc2c1C | inconclusive [inhibitor, partial curve, poor fit] | –
Cc1ccc(N=C2NC(=O)c3cccc([N+](=O)[O-])c32)cc1 | inconclusive [inhibitor, full curve, poor fit] | –
O=C(O)CSc1nnc(-c2ccc(Cl)cc2Cl)n1-c1ccccc1 | – | inactive: 15.1%
Cc1ccc(C)c(NC(=O)NNC(=O)c2cc3ccccc3cc2O)c1 | – | inactive: 30%
Cc1nn(-c2ccc(Cl)cc2)c(N)c1C(O)(CSc1nccn1C)C(F)(F)F (configuration not stated) | inconclusive [inhibitor, full curve] | –
COc1ccc2c3n([n+]([O-])c2c1)CCN=C3c1cc(Cl)c(N)c(Cl)c1 | inconclusive [inhibitor, single point] | –
CCn1c2c(c(=N)c3ccccc31)CCC2 | inconclusive [inhibitor, full curve] | –
CCOC(=O)CCc1c(C)nc2cc(-c3ccc(F)cc3)[nH]n2c1=O | inconclusive [inhibitor, single point] | –

From PubChem BioAssay AID504832 (National Center for Advancing Translational Sciences (NCATS), 2011)
